The target of test [1] is T1, cCFP-TIR1 (Arabidopsis thaliana) (UniProt Q570C0).
T1 sequence: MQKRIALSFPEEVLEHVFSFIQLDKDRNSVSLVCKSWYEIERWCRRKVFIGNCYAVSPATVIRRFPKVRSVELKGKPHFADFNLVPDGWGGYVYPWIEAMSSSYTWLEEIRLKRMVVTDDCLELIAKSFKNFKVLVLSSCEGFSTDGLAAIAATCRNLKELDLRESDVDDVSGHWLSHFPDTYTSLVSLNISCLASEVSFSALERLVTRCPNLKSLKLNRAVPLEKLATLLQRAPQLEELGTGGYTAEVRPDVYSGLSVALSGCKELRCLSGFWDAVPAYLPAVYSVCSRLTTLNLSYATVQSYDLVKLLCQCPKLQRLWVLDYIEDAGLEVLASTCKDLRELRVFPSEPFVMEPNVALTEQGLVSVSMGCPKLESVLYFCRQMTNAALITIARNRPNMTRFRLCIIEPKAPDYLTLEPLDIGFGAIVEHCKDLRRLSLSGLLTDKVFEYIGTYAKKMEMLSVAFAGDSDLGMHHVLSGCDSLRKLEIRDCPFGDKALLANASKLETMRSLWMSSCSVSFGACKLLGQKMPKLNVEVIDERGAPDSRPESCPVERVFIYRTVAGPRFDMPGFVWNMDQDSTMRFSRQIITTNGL
The experiment in a line: split reporter; BiFC with nVenus- and cCFP-tagged constructs co-expressed in N. benthamiana leaves by agroinfiltration; confocal microscopy about 48 h post-infiltration, YFP filter.

Chains of the proteins cited; added tags and fusions are not shown.
UniProt P05804: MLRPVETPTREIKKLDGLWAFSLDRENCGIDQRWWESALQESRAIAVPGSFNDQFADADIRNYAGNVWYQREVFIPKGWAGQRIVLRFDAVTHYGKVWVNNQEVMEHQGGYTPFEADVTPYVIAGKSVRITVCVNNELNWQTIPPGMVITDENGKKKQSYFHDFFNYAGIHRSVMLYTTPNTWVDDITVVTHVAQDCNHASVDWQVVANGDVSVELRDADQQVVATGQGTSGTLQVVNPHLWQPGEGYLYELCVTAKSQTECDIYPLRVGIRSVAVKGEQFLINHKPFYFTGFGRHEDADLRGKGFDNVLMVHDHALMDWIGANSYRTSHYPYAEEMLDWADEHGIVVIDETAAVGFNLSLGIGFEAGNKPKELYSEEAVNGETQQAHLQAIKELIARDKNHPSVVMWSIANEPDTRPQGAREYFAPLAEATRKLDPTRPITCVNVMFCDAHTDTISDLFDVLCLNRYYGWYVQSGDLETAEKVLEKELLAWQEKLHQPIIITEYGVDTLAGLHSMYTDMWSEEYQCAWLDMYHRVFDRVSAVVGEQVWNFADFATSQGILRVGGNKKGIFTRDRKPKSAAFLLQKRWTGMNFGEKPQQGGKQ

The target of test [2] is T2, nVenus-ITPK1 (Arabidopsis thaliana) (UniProt Q9SBA5).
T2 sequence: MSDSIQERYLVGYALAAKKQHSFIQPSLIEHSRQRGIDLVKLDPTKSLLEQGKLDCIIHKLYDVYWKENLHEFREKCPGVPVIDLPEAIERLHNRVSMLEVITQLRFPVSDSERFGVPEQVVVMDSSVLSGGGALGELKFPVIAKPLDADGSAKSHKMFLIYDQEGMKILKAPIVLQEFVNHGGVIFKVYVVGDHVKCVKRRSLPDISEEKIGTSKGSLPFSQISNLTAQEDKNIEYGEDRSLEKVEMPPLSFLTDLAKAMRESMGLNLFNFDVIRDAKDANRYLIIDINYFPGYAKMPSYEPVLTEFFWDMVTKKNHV
Described as above.

Test [3] has as its target T3, ITPK1–G3GFP (INOSITOL (1,3,4) TRIPHOSPHATE 5/6 KINASE1 in translational fusion with C-terminal G3GFP) (Arabidopsis thaliana) (UniProt Q9SBA5).
T3 sequence: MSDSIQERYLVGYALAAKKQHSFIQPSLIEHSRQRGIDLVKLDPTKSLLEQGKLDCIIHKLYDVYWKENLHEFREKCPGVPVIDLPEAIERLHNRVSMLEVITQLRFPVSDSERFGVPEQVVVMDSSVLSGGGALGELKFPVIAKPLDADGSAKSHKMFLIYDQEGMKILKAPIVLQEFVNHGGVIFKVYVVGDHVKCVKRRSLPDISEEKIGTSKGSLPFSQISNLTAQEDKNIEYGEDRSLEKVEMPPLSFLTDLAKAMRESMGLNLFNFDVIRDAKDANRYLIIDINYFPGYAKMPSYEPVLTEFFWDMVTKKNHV
The experiment in a line: co-IP; total leaf extracts of transgenic Arabidopsis plants in RIPA buffer, pre-cleared with IgG agarose, anti-GFP agarose beads overnight at 4°C; immunoblot with anti-GFP or anti-TIR1 antibodies.

Test [4] concerns the target T4, cCFP-ITPK1 (Arabidopsis thaliana) (UniProt Q9SBA5).
T4 sequence: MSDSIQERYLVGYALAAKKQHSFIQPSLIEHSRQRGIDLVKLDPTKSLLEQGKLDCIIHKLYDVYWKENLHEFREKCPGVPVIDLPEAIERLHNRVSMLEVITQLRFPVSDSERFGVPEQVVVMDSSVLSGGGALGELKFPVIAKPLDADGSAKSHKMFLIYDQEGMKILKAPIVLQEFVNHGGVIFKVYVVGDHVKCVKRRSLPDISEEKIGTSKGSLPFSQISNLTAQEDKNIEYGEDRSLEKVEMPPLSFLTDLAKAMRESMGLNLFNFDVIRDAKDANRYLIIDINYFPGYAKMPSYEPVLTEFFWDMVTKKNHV
In words: split reporter; BiFC with nVenus- and cCFP-tagged constructs co-expressed in N. benthamiana leaves by agroinfiltration; confocal microscopy about 48 h post-infiltration, YFP filter.

This note sets out measurements from PMC9706486, “INOSITOL (1,3,4) TRIPHOSPHATE 5/6 KINASE1-dependent inositol polyphosphates regulate auxin responses in Arabidopsis” (Plant Physiology, 2022).

These are yes or no findings as the source states them, for the method shown. Binding seen in cells or lysates may run through a third protein. Some binding calls cover weakened binding; strength is not graded here. Where a sequence is shown, tags or fusion partners need not be part of it.

Consider “BiFC construct of GUS (from UniProt P05804 1-603) (enzyme)”, for which the binding result in test [1] and in test [2] was “no binding” throughout.

B1: TRANSPORT INHIBITOR RESPONSE1 (TIR1), endogenous (protein, UniProt Q570C0 1-594)
chain: MQKRIALSFPEEVLEHVFSFIQLDKDRNSVSLVCKSWYEIERWCRRKVFIGNCYAVSPATVIRRFPKVRSVELKGKPHFADFNLVPDGWGGYVYPWIEAMSSSYTWLEEIRLKRMVVTDDCLELIAKSFKNFKVLVLSSCEGFSTDGLAAIAATCRNLKELDLRESDVDDVSGHWLSHFPDTYTSLVSLNISCLASEVSFSALERLVTRCPNLKSLKLNRAVPLEKLATLLQRAPQLEELGTGGYTAEVRPDVYSGLSVALSGCKELRCLSGFWDAVPAYLPAVYSVCSRLTTLNLSYATVQSYDLVKLLCQCPKLQRLWVLDYIEDAGLEVLASTCKDLRELRVFPSEPFVMEPNVALTEQGLVSVSMGCPKLESVLYFCRQMTNAALITIARNRPNMTRFRLCIIEPKAPDYLTLEPLDIGFGAIVEHCKDLRRLSLSGLLTDKVFEYIGTYAKKMEMLSVAFAGDSDLGMHHVLSGCDSLRKLEIRDCPFGDKALLANASKLETMRSLWMSSCSVSFGACKLLGQKMPKLNVEVIDERGAPDSRPESCPVERVFIYRTVAGPRFDMPGFVWNMDQDSTMRFSRQIITTNGL
For the molecule B1, the binding result in test [3] is “binds”.

B2: nVenus-TIR1 (protein, UniProt Q570C0 1-594)
chain: MQKRIALSFPEEVLEHVFSFIQLDKDRNSVSLVCKSWYEIERWCRRKVFIGNCYAVSPATVIRRFPKVRSVELKGKPHFADFNLVPDGWGGYVYPWIEAMSSSYTWLEEIRLKRMVVTDDCLELIAKSFKNFKVLVLSSCEGFSTDGLAAIAATCRNLKELDLRESDVDDVSGHWLSHFPDTYTSLVSLNISCLASEVSFSALERLVTRCPNLKSLKLNRAVPLEKLATLLQRAPQLEELGTGGYTAEVRPDVYSGLSVALSGCKELRCLSGFWDAVPAYLPAVYSVCSRLTTLNLSYATVQSYDLVKLLCQCPKLQRLWVLDYIEDAGLEVLASTCKDLRELRVFPSEPFVMEPNVALTEQGLVSVSMGCPKLESVLYFCRQMTNAALITIARNRPNMTRFRLCIIEPKAPDYLTLEPLDIGFGAIVEHCKDLRRLSLSGLLTDKVFEYIGTYAKKMEMLSVAFAGDSDLGMHHVLSGCDSLRKLEIRDCPFGDKALLANASKLETMRSLWMSSCSVSFGACKLLGQKMPKLNVEVIDERGAPDSRPESCPVERVFIYRTVAGPRFDMPGFVWNMDQDSTMRFSRQIITTNGL
For the molecule B2, in test [4], the binding entry was “binds”.

B3: cCFP-TIR1 (protein, UniProt Q570C0 1-594)
chain: MQKRIALSFPEEVLEHVFSFIQLDKDRNSVSLVCKSWYEIERWCRRKVFIGNCYAVSPATVIRRFPKVRSVELKGKPHFADFNLVPDGWGGYVYPWIEAMSSSYTWLEEIRLKRMVVTDDCLELIAKSFKNFKVLVLSSCEGFSTDGLAAIAATCRNLKELDLRESDVDDVSGHWLSHFPDTYTSLVSLNISCLASEVSFSALERLVTRCPNLKSLKLNRAVPLEKLATLLQRAPQLEELGTGGYTAEVRPDVYSGLSVALSGCKELRCLSGFWDAVPAYLPAVYSVCSRLTTLNLSYATVQSYDLVKLLCQCPKLQRLWVLDYIEDAGLEVLASTCKDLRELRVFPSEPFVMEPNVALTEQGLVSVSMGCPKLESVLYFCRQMTNAALITIARNRPNMTRFRLCIIEPKAPDYLTLEPLDIGFGAIVEHCKDLRRLSLSGLLTDKVFEYIGTYAKKMEMLSVAFAGDSDLGMHHVLSGCDSLRKLEIRDCPFGDKALLANASKLETMRSLWMSSCSVSFGACKLLGQKMPKLNVEVIDERGAPDSRPESCPVERVFIYRTVAGPRFDMPGFVWNMDQDSTMRFSRQIITTNGL
Consider B3, for which the binding entry in test [2] was “binds”.
